These results are taken from the RNAGym collection of RNA variant scans (doi:10.1073/pnas.2313332121).

The labels stand for the following.
B1: TPR 5TU (parent)
chain: GGAUCUUCUCGAUCUAACAAAAAAGACAAAUCUGCCACAAAGCUUGAGAGCAUCUUCGGAUGCAGAGGCGGCAGCCUUCGGUGGCGCGAUAGCGCCAACGUUCUCAACUAUGACACGCAAAACGCGUGCUCCGUUGAAUGGAGUUUAUCAUG

Variants at the background level are over-represented here. Some results are limits rather than exact numbers.

In this series the parent is B1. The series is described as follows: polymerase ribozyme fitness, log enrichment relative to wild type (log ratio); higher = more active; in vitro selection for triplet polymerase activity. Put shortly: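 Mutant libraries of each subunit of a heterodimeric triplet polymerase ribozyme were built by PCR and transcribed. Each library went through one round of in vitro selection in triplicate: annealing with biotinylated primer, partner subunit and triplets, frozen incubation at −7 °C, gel excision of extended constructs, streptavidin-bead capture and RT-PCR. Input and output libraries were Illumina-sequenced; only genotypes with ≥10 input reads and ≥1 read per output were kept. Fitness is log2(genotype enrichment/wild-type enrichment), using inverse-variance-weighted replicate averages.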
On to C10U C32U C76G, for which the “polymerase ribozyme fitness (log ratio)” value was no more than -4.2.
For C10U A20U C57A U145C, the “polymerase ribozyme fitness (log ratio)” value is -3.45.
For G11C C35G A52U C63A G94A C131U the value was no more than -4.2; for C10G C96G C103U, no more than -4.2.
Under G11C C36G C85G A115G stands no more than -4.2.
For C10U A12C G34A G92C the value was -4.16.
Regarding C10U A91U G92C C95A G124A, the “polymerase ribozyme fitness (log ratio)” value was no more than -4.2.
For the variant C10U A29G A47C U55G A60U C95U U144A U146G, the “polymerase ribozyme fitness (log ratio)” value is no more than -4.2.
For G11A A28U C38U C85A A91C C132A G140A, the “polymerase ribozyme fitness (log ratio)” value was no more than -4.2.
On to C10G U55A G80U, for which the “polymerase ribozyme fitness (log ratio)” value is no more than -4.2.
In the case of G11A U33C C87G C149G, the “polymerase ribozyme fitness (log ratio)” value was no more than -4.2.
Consider C10U G68A C93U U104C A106G, for which the “polymerase ribozyme fitness (log ratio)” value is no more than -4.2.
With C10U A29U G42C U44C U139C, the “polymerase ribozyme fitness (log ratio)” value was no more than -4.2.
On to G11C C14A A16G C87U, for which the “polymerase ribozyme fitness (log ratio)” value is no more than -4.2.
G11A C14G A30U A39U U45A C69U U109G U135C: the “polymerase ribozyme fitness (log ratio)” value was no more than -4.2.
Regarding G11C A41C U44G A60U C87G, the “polymerase ribozyme fitness (log ratio)” value was no more than -4.2.
For C10U A22U A29G U61A C95G G133U G136C, the “polymerase ribozyme fitness (log ratio)” value is no more than -4.2.
Regarding C10G U15G A26C C54A G88C C108U A137U G140C U146C, the “polymerase ribozyme fitness (log ratio)” value was no more than -4.2.
In the case of C10U C43A U78A C87U U134G A142C, the “polymerase ribozyme fitness (log ratio)” value is no more than -4.2.
As to G11C G34C A52C C95U U144A, the “polymerase ribozyme fitness (log ratio)” value was no more than -4.2.
Regarding G11C A28G U31A C76G C85U, the “polymerase ribozyme fitness (log ratio)” value was no more than -4.2.
For C10U A16G A29C C51G U56G C57A G70U C85G, the “polymerase ribozyme fitness (log ratio)” value is no more than -4.2.
C10U C43G G71C A91U C93A: the “polymerase ribozyme fitness (log ratio)” value is no more than -4.2.
As to C10U C14G C76A, the “polymerase ribozyme fitness (log ratio)” value was no more than -4.2.
As to G11C A20C A29C G46A C116A U145C, the “polymerase ribozyme fitness (log ratio)” value was no more than -4.2.
With G11A G48C C108G U134A U144C, the “polymerase ribozyme fitness (log ratio)” value is no more than -4.2.
Under C10U U31G A66C G86U stands no more than -4.2.
Consider G11A C85U, for which the “polymerase ribozyme fitness (log ratio)” value is -1.56.
For G11A G46A C51U C57G G152A the value was no more than -4.2; for C10U A12C U15C A40U G70U C72U C75A C76U C93U A98U C118G C149A, no more than -4.2.
For the variant G11A G50C C93U A97U G141U, the “polymerase ribozyme fitness (log ratio)” value was no more than -4.2.
For the variant C10G U31A C76G G84U G117U G141U A150G, the “polymerase ribozyme fitness (log ratio)” value is no more than -4.2.
Regarding G11C C57G U82A G83U G141U, the “polymerase ribozyme fitness (log ratio)” value is -2.65.
With C10U C93U, the “polymerase ribozyme fitness (log ratio)” value is -4.06.
In the case of C10G C72G C87G G94C C108G C114A U146A, the “polymerase ribozyme fitness (log ratio)” value was no more than -4.2.
Under G11C A22U A29G A39G A47C C76U U78A C103G C125G G140A U144C stands no more than -4.2; under G11A A20U A26C U45A G46C U53G A91U C96A A106C C129G G136C, no more than -4.2.
For C10U C27U U31G A49U U78G C93U C149G, the “polymerase ribozyme fitness (log ratio)” value is no more than -4.2.
For G11C A49U G83A C95G A107C the value was no more than -4.2; for C10G G11U G71U C93G A138G, no more than -4.2.
As for C10G U33A C35U U55G C57U C85U C87U A142C, the “polymerase ribozyme fitness (log ratio)” value was no more than -4.2.
Under C10U G11U A30G G42C U44C A91U C96A G124A stands no more than -4.2; under C10U U44A C75U C85A A91G U134A U146A, no more than -4.2; under C10G U44A C95A A97U C132A U139G U144C, no more than -4.2.
As to G11U A12G A40C G83U A89G A119G G140U, the “polymerase ribozyme fitness (log ratio)” value was no more than -4.2.
As for G11A U33G A66G C75G A91U A107C, the “polymerase ribozyme fitness (log ratio)” value is no more than -4.2.
C10U: the “polymerase ribozyme fitness (log ratio)” value was -2.16.
In the case of G11U A22C G25A G50C C54U C96U A106G U130G A137G, the “polymerase ribozyme fitness (log ratio)” value was no more than -4.2.
Regarding G11C A24C C51G C87G A98G C99G A138U, the “polymerase ribozyme fitness (log ratio)” value was no more than -4.2.
Take G11C A17U C43A G50A C51G G67A C87G: the “polymerase ribozyme fitness (log ratio)” value is no more than -4.2.
Turning to C10G G58U C69A C85U C132G G133C G141C, the “polymerase ribozyme fitness (log ratio)” value was no more than -4.2.
On to C10G U44G G58U G80U C87A U127G U144C, for which the “polymerase ribozyme fitness (log ratio)” value was no more than -4.2.
As for G11A C27G U53A G83U G86A G140A, the “polymerase ribozyme fitness (log ratio)” value is no more than -4.2.
For G11A G25U G83C A107C the value was no more than -4.2.
In the case of G11A G50C G81A C85U G140U, the “polymerase ribozyme fitness (log ratio)” value is no more than -4.2.
As to G11C A16U G46A C87U A89C G94A A113C, the “polymerase ribozyme fitness (log ratio)” value is no more than -4.2.
On to G11A U55G G74C U77C A98U A115C, for which the “polymerase ribozyme fitness (log ratio)” value is no more than -4.2.
As to C10U A20U A22C A39U A52C U55A C69A A142G, the “polymerase ribozyme fitness (log ratio)” value is no more than -4.2.
Consider G11C C35G U45G G80U C85U A97U A107G, for which the “polymerase ribozyme fitness (log ratio)” value is no more than -4.2.
For the variant C10U A30C A40C G74C U77A G92A C125A U151C, the “polymerase ribozyme fitness (log ratio)” value is no more than -4.2.
In the case of G11C U77A, the “polymerase ribozyme fitness (log ratio)” value is no more than -4.2.
For the variant G11A A28G C85G C149G, the “polymerase ribozyme fitness (log ratio)” value was no more than -4.2.
With G11C C63U G83A A115U U135A U146C G152U, the “polymerase ribozyme fitness (log ratio)” value was no more than -4.2.
For G11C A20U G83U A91G G143A A147C the value was no more than -4.2; for C10G G94A A119U, no more than -4.2; for G11U A19G G88U, no more than -4.2.
Turning to C10U G50C C79A C103A G141C, the “polymerase ribozyme fitness (log ratio)” value was no more than -4.2.
Under G11U A19U A39G C75U G94C A142C stands no more than -4.2; under G11C A19U C93A C95A A147C, no more than -4.2.
For G11A A29U A49C C87A C99U C129U G141U the value was no more than -4.2.
For G11C A16G A21U A30C G34U U53G C79G A142U, the “polymerase ribozyme fitness (log ratio)” value is no more than -4.2.
Under C10G G25C A41U U77C C85A C99U G140U stands no more than -4.2; under G11C A26G A91C G92A G152C, no more than -4.2.
With G11A A28U U56G G59A G88A C96G A110U U148C, the “polymerase ribozyme fitness (log ratio)” value is no more than -4.2.
In the case of C10U A20U C43G G46A A47C G58A C79U, the “polymerase ribozyme fitness (log ratio)” value is no more than -4.2.
As to G11A C75G C85U C116U C118U U134A C149U, the “polymerase ribozyme fitness (log ratio)” value is no more than -4.2.
As for G11U A16U A52C G58C G65A C79A G83U C93U C118A, the “polymerase ribozyme fitness (log ratio)” value is no more than -4.2.
On to G11C U33G C38U A47C A49C G92A A97G U111G C118U G133U, for which the “polymerase ribozyme fitness (log ratio)” value was -4.17.
Under G11A U55A U77G G83C A142U stands no more than -4.2; under C10U A17U C75U C93U, no more than -4.2; under C10U G46A C85G A113U G128A G143U U148A, no more than -4.2.
On to G11U A17G G25U C32A G71C C87G A89G, for which the “polymerase ribozyme fitness (log ratio)” value was no more than -4.2.
Consider G11C C14A C93G A98U C99G A110C, for which the “polymerase ribozyme fitness (log ratio)” value is no more than -4.2.
